From PMC6664820, “Novel natural and synthetic inhibitors of solute carriers SGLT1 and SGLT2” (Pharmacology Research & Perspectives, 2019) come the findings set out here.

About 40 (2%) of roughly 1,900 compounds showed an effect of 50% or more. The list shows a part of the results.

Chain of human SGLT1 (hSGLT1) (P13866 whole entry, looked up): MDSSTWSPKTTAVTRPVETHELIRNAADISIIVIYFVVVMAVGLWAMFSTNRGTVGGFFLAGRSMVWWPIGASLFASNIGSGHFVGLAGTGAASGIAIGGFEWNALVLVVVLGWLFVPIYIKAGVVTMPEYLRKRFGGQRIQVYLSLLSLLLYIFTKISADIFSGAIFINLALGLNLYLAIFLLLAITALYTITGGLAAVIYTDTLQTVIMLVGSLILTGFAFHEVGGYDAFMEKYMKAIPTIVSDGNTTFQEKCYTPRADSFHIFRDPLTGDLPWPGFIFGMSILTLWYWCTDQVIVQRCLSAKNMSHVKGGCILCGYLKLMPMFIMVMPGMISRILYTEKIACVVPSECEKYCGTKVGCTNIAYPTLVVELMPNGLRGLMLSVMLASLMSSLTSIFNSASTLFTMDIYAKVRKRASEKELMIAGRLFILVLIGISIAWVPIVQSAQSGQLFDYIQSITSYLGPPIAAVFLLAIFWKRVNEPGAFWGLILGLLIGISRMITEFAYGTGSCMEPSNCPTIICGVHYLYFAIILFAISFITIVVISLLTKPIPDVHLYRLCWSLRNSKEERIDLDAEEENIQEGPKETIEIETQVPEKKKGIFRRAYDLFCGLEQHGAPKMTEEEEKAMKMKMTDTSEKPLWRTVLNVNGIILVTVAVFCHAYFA

For this experiment, the target named is human SGLT1 (hSGLT1) (human, UniProt P13866). As to the kind of experiment: primary screen, percent of control activity; higher = less effect of the substance. As to conditions: 50 µM. Details: single well. Put shortly:
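Single-point screen at 50 µmol/L in CHO-hSGLT1 cells, with 160 µmol/L 1-NBD-glucose in glucose-free DMEM for 90 min at 37°C. Fluorescence from isopropanol extracts was calibrated, and CHO wild-type uptake was subtracted. Data are percent of uptake without compound.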
Consider `CN[C@@H]1[C@H](O)[C@H](NC)[C@H]2O[C@@]3(O)C(=O)C[C@@H](C)O[C@H]3O[C@@H]2[C@H]1O.Cl.Cl`, for which the “NORMALIZED SGLT1 ACTIVITY (%)” value is given as 111%.
Then `CC(=O)OC(C)C[N+](C)(C)C.[Cl-]` (stereo not drawn), with 107%; and `COc1ccc(C(=O)c2ccccc2O)c(O)c1`, with 111%.
Then `Cc1ccc2cc3c(ccc4ccccc43)c3c2c1CC3`, with 107%; and `CC[C@H]1OC(=O)[C@H](C)[C@@H](O[C@H]2C[C@@](C)(OC)[C@@H](O)[C@H](C)O2)[C@H](C)[C@@H](O[C@@H]2O[C@H](C)C[C@H](N(C)C)[C@H]2O)[C@](C)(OC)C[C@@H](C)C(=O)[C@H](C)[C@@H](O)[C@]1(C)O`, with 103%; and `COc1cc(CNC(=O)CCCC/C=C/C(C)C)ccc1O`, with 210%.
Then `C1CCN2C[C@@H]3C[C@H](CN4CCCC[C@@H]34)[C@H]2C1.O=S(=O)(O)O`, with 72%; and `C[C@@H]1CC[C@H]2[C@@H](C)C(=O)O[C@@H]3O[C@@]4(C)CC[C@@H]1[C@]32OO4`, with 120%.
In the case of `CCCNC(C)C(=O)Nc1ccccc1C.Cl` (stereo not drawn), the “NORMALIZED SGLT1 ACTIVITY (%)” value worked out at 71%.
Then `Cc1cc(O)cc(=O)o1`, with 113%.
Consider `COC1=CC(=O)C=C(OC)C1=O`, for which the “NORMALIZED SGLT1 ACTIVITY (%)” value is given as 308%.
Then `O=C(O)[C@H](O)[C@@](O)(Cc1ccc(O)cc1)C(=O)O`, with 96%.
Then `O=C(Oc1cc(OC(=O)c2ccccc2)c2c(c1)O[C@H](c1ccc(OC(=O)c3ccccc3)c(OC(=O)c3ccccc3)c1)[C@@H](OC(=O)c1ccccc1)C2)c1ccccc1`, with 115%.
To `O=C(O)CN(CCN(CC(=O)O)CC(=O)O)CC(=O)O.[Na+].[Na+].[Na+]` belongs 85%; to `CO/N=C(\C(=O)N[C@@H]1C(=O)N2C(C(=O)[O-])=C(COC(C)=O)CS[C@H]12)c1csc(N)n1.[Na+]`, 112%.
Turning to `COc1ccc(/C=C/C(=O)O)cc1OC`, the “NORMALIZED SGLT1 ACTIVITY (%)” value was 166%.
With `O=C1[C@H](CC[C@H](O)c2ccc(F)cc2)[C@@H](c2ccc(O)cc2)N1c1ccc(F)cc1`, the “NORMALIZED SGLT1 ACTIVITY (%)” value is listed as 381%.
With `COc1ccc(-c2cc(=O)c3ccccc3o2)cc1`, the “NORMALIZED SGLT1 ACTIVITY (%)” value is reported as 199%.
Then `Cc1onc(-c2ccccc2)c1-c1ccc(S(N)(=O)=O)cc1`, with 121%.
Then `COc1c(C(=O)O)ccc2c1CCC(C)(C)O2`, with 115%; and `CC(=O)O[C@@H]1CC2C(C)(C)C(=O)C3OC3[C@]2(C)C2CC[C@@]3(C)[C@H](c4ccoc4)OC(=O)C4OC43[C@@]21C` (stereo partly drawn), with 138%.
Then `C[C@@H]1CC[C@@]23CCC4(C)[C@@](C=CC5[C@@]6(C)CCC(=O)C(C)(C)C6CC[C@]54C)(OC2=O)C3[C@H]1C` (stereo partly drawn), with 93%; and `NC(=O)NC1NC(=O)NC1=O` (stereo not drawn), with 91%.
In the case of `CCCCCCCCCCCC1=C(O)C(=O)C=C(O)C1=O`, the “NORMALIZED SGLT1 ACTIVITY (%)” value is on record as 99%.
Turning to `CC(=O)c1cc2c(cc1O)OC(C)(C)C=C2`, the “NORMALIZED SGLT1 ACTIVITY (%)” value is 104%.
To `CCS(=O)CCSP(=O)(OC)OC` (stereo not drawn) belongs 98%.
To `CC(C)=CC1C(C(=O)OCc2cccc(Oc3ccccc3)c2)C1(C)C` (stereo not drawn) belongs 75%; to `CC(=O)O[C@@H]1CC[C@@]2(C)C(C[C@@H](OC(C)=O)[C@]3(C)C2CC[C@@]2(C)[C@H](c4ccoc4)OC(=O)[C@H]4O[C@]423)C1(C)C` (stereo partly drawn), 229%.
Consider `Cc1cn([C@H]2C[C@H](N=[N+]=[N-])[C@@H](CO)O2)c(=O)[nH]c1=O`, for which the “NORMALIZED SGLT1 ACTIVITY (%)” value is 240%.
To `C=C[C@H]1CN2CC[C@H]1C[C@@H]2[C@@H](O)c1ccnc2ccc(OC)cc12.O=C(O)[C@H](O)[C@@H](O)[C@H](O)[C@H](O)CO` belongs 56%; to `Oc1cc2c(cc1O)C1c3ccc(O)c(O)c3OCC1(O)C2` (stereo not drawn), 143%; to `Cc1cccc(C)c1NC(=O)C1CCCCN1C.Cl` (stereo not drawn), 83%.
To `Cl.O=C(O)c1cn(-c2ccc(F)cc2)c2cc(N3CCNCC3)c(F)cc2c1=O` belongs 98%; to `COc1ccc(CC2c3cc(OC)c(OC)cc3CCN2C)cc1OC` (stereo not drawn), 124%; to `CC(=O)O[C@@H]1CC2C(C)(C)CCC(=O)[C@]2(C)C2CC[C@@]3(C)[C@H](c4ccoc4)OC(=O)C4OC43[C@@]21C` (stereo partly drawn), 126%.
Then `COc1cc2c(cc1OC)C(=O)OC2`, with 185%; and `COc1ccc2c3c1O[C@H]1C[C@@H](O)C=C[C@@]31CCN(C)C2`, with 123%; and `O=c1[nH]cnc2[nH]ncc12`, with 109%.
Take `O=C([O-])P(=O)([O-])[O-].[Na+].[Na+].[Na+]`: the “NORMALIZED SGLT1 ACTIVITY (%)” value is recorded as 112%.
For `COc1ccc2cc([C@H](C)CO)ccc2c1`, the “NORMALIZED SGLT1 ACTIVITY (%)” value is recorded as 111%.
To `Cc1c(Cl)cccc1Nc1ccccc1C(=O)O` belongs 358%.
Turning to `CCOc1ccc(NC(C)=O)cc1`, the “NORMALIZED SGLT1 ACTIVITY (%)” value is 151%.
For the compound `C=C1[C@H]2CC[C@@]3(C)[C@H](c4ccoc4)OC(=O)C[C@]13O[C@H]1C[C@H](O)C(C)(C)[C@H](CC(=O)OC)[C@]12C`, the “NORMALIZED SGLT1 ACTIVITY (%)” value came out at 115%.
To `Nc1ncnc2c1ncn2[C@@H]1O[C@H](CO)[C@@H](O)[C@@H]1O` belongs 107%; to `CC1(C)C=Cc2cc3ccc(=O)oc3cc2O1`, 108%; to `O=C(/C=C/C(=O)Oc1ccccc1C(=O)O)Oc1ccccc1C(=O)O`, 116%.
As to `O=C(O)c1cccnc1C(=O)O`, the “NORMALIZED SGLT1 ACTIVITY (%)” value was 124%.
For the compound `NC[C@H]1O[C@H](O[C@H]2[C@H](O)[C@@H](O[C@H]3O[C@H](CO)[C@@H](O)[C@H](N)[C@H]3O)[C@H](N)C[C@@H]2N)[C@H](N)[C@@H](O)[C@@H]1O.O=S(=O)(O)O`, the “NORMALIZED SGLT1 ACTIVITY (%)” value is listed as 89%.
Then `CNC(C)(C)Cc1ccccc1.O=S(=O)(O)O`, with 132%.
Then `Oc1cc(O)cc(/C=C/c2ccccc2)c1`, with 39%.
To `CC(C)(C)CC(C)(C)c1ccc(O)c(Cc2ccc(Cl)cc2Cl)c1` belongs 137%; to `Nc1ccc(S(=O)(=O)Nc2ccc(Cl)nn2)cc1`, 86%.
`CNC(=O)Oc1ccc2c(c1)[C@]1(C)CCN(C)[C@@H]1N2C.O=C(O)c1ccccc1O`: the “NORMALIZED SGLT1 ACTIVITY (%)” value is reported as 102%.
Then `CCOC(=O)c1ccc(N)cc1`, with 116%.
Regarding `CC(=O)O[C@H]1C[C@@H](OC(C)=O)C(C)(C)C2CC(=O)[C@]3(C)C(CC[C@@]4(C)[C@H](c5ccoc5)OC(=O)[C@H]5O[C@]543)[C@]21C` (stereo partly drawn), the “NORMALIZED SGLT1 ACTIVITY (%)” value amounted to 147%.
To `O=C([O-])Cc1ccccc1Nc1c(Cl)cccc1Cl.[Na+]` belongs 128%; to `O=C(O)CCc1nc(-c2ccccc2)c(-c2ccccc2)o1`, 231%.
